Screen size: about 150,000 compounds; about 540 (0.36%) showed an effect of 50% or more. This is one part of the list.
Test system: Plasmodium falciparum
Experiment: Primary screen in NF54 nanoGlo assay, in single point, at 2uM, 72h; a lower Z score goes with more inhibition
Format: functional, Erythrocyte
Settings: timepoint 72 hour

In order of falling “% Inhibition” value:
1. Cc1nn(-c2ccccc2)c2sc(C(=O)Nc3nc(-c4cccs4)cs3)cc12  23%
2. Cc1cccc(NC(=O)C2(N(Cc3ccco3)C(=O)Cc3cc4ccccc4[nH]3)CCCCC2)c1  21%
3. O=C(CNc1ccc(Cl)c(Cl)c1)N1CCC(Cc2ccccc2)CC1  15%
4. CCOC1CC(NC(=O)c2ccc(-c3nnc(C)[nH]3)cc2)C12CCC2 (stereo unspecified)  11%
5. CCOC(=O)C1CCN(CN2C(=O)C3(OCC(C)(c4ccccc4)CO3)c3ccccc32)CC1 (stereo unspecified)  8%
6. CCCc1nnc(N2CCC3(CCC(=O)N(CCc4ccccn4)C3)CC2)s1  3%
7. Cc1nn(CC(=O)N2CCNC(=O)C2)c(=O)n1CCc1ccccc1  3%
8. CC1(C(=O)Nc2ccc(F)cc2F)CNC1  0%
9. Cc1cc(CN2CC[C@H](c3nnc[nH]3)C2)n(C)n1  0%
10. CCOc1ccccc1NC(=O)Cn1cc(-c2ccccc2)c2ncn(C3CC3)c(=O)c21  -1%
11. CC(C)n1ccc(NC(=O)NC[C@H]2CCC[C@@H]2O)n1  -2%
12. CCS(=O)(=O)Nc1c(C(F)(F)F)nn(C)c1Cl  -3%
13. Cc1c(O)cccc1-c1nc([C@@H]2CCN2C(=O)OC(C)(C)C)no1  -3%
14. O=C(NCc1nccn1CCCc1ccccc1)N1CC2CCC1C2 (stereo unspecified)  -3%
15. Cc1c(Cl)cccc1CNC(=O)N1CCNC(=O)C1  -3%
16. CO[C@@]12CC[C@@H](NC(C)=O)C[C@@H]1N(C(=O)CN1Cc3ccccc3C1)CC2  -5%
17. CCC[C@H]1CN(c2nnc(C)s2)C[C@@H]1NC(=O)C1CCOCC1  -6%
18. COc1ccc(OCC(=O)N2CC(OCc3ccccc3F)C2)cc1  -7%
19. COc1ccc(NC(=O)c2ccc3ccccc3c2)cc1S(=O)(=O)N1CCOCC1  -8%
20. Clc1cnc(N2CC[C@H](N3CCCC3)C2)c(Cl)c1  -10%
21. O=C(NCc1cccc(Cl)c1)c1cccn2c(=O)c3ccc(Cl)cc3nc12  -11%
22. Cc1ccc(-c2cc(C(=O)N3CC(OCc4ccc(F)cc4)C3)[nH]n2)s1  -21%
23. CC(C)CN(CCC(=O)NC(C)C)c1nc(-c2ccco2)nc2ccccc12  -22%

In order of rising Z score:
1. Cc1nn(-c2ccccc2)c2sc(C(=O)Nc3nc(-c4cccs4)cs3)cc12  -2.57
2. Cc1cccc(NC(=O)C2(N(Cc3ccco3)C(=O)Cc3cc4ccccc4[nH]3)CCCCC2)c1  -2.39
3. O=C(CNc1ccc(Cl)c(Cl)c1)N1CCC(Cc2ccccc2)CC1  -1.84
4. CCOC1CC(NC(=O)c2ccc(-c3nnc(C)[nH]3)cc2)C12CCC2 (stereo unspecified)  -1.33
5. CCOC(=O)C1CCN(CN2C(=O)C3(OCC(C)(c4ccccc4)CO3)c3ccccc32)CC1 (stereo unspecified)  -1.02
6. CCCc1nnc(N2CCC3(CCC(=O)N(CCc4ccccn4)C3)CC2)s1  -0.59
7. Cc1nn(CC(=O)N2CCNC(=O)C2)c(=O)n1CCc1ccccc1  -0.37
8. Cc1cc(CN2CC[C@H](c3nnc[nH]3)C2)n(C)n1  -0.03
9. CC1(C(=O)Nc2ccc(F)cc2F)CNC1  0.03
10. CCOc1ccccc1NC(=O)Cn1cc(-c2ccccc2)c2ncn(C3CC3)c(=O)c21  0.11
11. O=C(NCc1nccn1CCCc1ccccc1)N1CC2CCC1C2 (stereo unspecified)  0.28
12. CC(C)n1ccc(NC(=O)NC[C@H]2CCC[C@@H]2O)n1  0.32
13. Cc1c(Cl)cccc1CNC(=O)N1CCNC(=O)C1  0.46
14. Cc1c(O)cccc1-c1nc([C@@H]2CCN2C(=O)OC(C)(C)C)no1  0.47
15. CCS(=O)(=O)Nc1c(C(F)(F)F)nn(C)c1Cl  0.49
16. CO[C@@]12CC[C@@H](NC(C)=O)C[C@@H]1N(C(=O)CN1Cc3ccccc3C1)CC2  0.76
17. Clc1cnc(N2CC[C@H](N3CCCC3)C2)c(Cl)c1  1
18. COc1ccc(OCC(=O)N2CC(OCc3ccccc3F)C2)cc1  1.12
19. CCC[C@H]1CN(c2nnc(C)s2)C[C@@H]1NC(=O)C1CCOCC1  1.17
20. O=C(NCc1cccc(Cl)c1)c1cccn2c(=O)c3ccc(Cl)cc3nc12  1.26
21. COc1ccc(NC(=O)c2ccc3ccccc3c2)cc1S(=O)(=O)N1CCOCC1  1.55
22. Cc1ccc(-c2cc(C(=O)N3CC(OCc4ccc(F)cc4)C3)[nH]n2)s1  2.56
23. CC(C)CN(CCC(=O)NC(C)C)c1nc(-c2ccco2)nc2ccccc12  3.21

— ChEMBL document CHEMBL4888484, “Replenishing the malaria drug discovery pipeline: Screening and hit evaluation of the MMV Hit Generation Library 1 (HGL1) against asexual blood stage Plasmodium falciparum ,using a nano luciferase reporter read-out” (2022)
